# Data taken from PubChem BioAssay AID1347417 (National Center for Advancing Translational Sciences (NCATS), 2020).
# In all, about 120,000 compounds went through this assay and about 5,300 (4.4%) were called active. The shares of active, inactive and inconclusive entries below differ from those in the screen. The call rests on the fitted dose curve; in most records, active means well fitted inhibition curve with a large enough effect; inconclusive means small, poorly fitted or top-dose-only effect; inactive means no such curve, though single readings can be large or run the other way. Potencies of inconclusive entries are doubtful fits and often do not repeat.
# Test: qHTS Primary assay for Inhibitors of Plasmodium falciparum Dd2 growth in vitro; further: nearly all actives have a fitted effect of over 65% in size;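 on activity, negative = inhibition: plate controls were DMSO vehicle for no effect and reference drug for full effect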
# Conditions: P. falciparum Dd2 growth, SYBR Green, 72 h; activity, negative = inhibition: at 28.9 µM (top of the series) unless noted; series mostly up to 28.9 µM
# Method in brief: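 Readout: SYBR Green fluorescence, 485 nm excitation, 535 nm emission, after ~16 h lysis at 37C. Before that, Dd2-infected red cells (2.5% hematocrit) grew 72 h with compound, 29 uM top final concentration.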
# Potency means the concentration at half of the fitted maximal effect; tags describe the fitted curve by direction and shape.
SMILES,Potency,"activity, negative = inhibition"
O=C(Nc1ccc(F)cc1Cl)n1ncc2cc(Cl)ccc21,"inconclusive: 14.1 µM [inhibitor, single point]",
CNC(=O)[C@@H]1CN(C(=O)CCn2cccn2)C[C@H]1COC,inactive,
CC(C)NC(=O)c1nc(-c2ccc(Cl)cc2Cl)c2ccccn12,"inconclusive: 11.2 µM [inhibitor, single point]",
CC1=C(C(=O)Nc2ccc(C)cc2C)C(c2ccc(O)cc2)n2nnnc2N1 (stereo not drawn),"inconclusive: 17.8 µM [inhibitor, single point]",
COc1ccc(/C=C\c2onc(C)c2S(=O)(=O)N2CCC(C(=O)Nc3ccc(C)cc3C)CC2)cc1,"inconclusive: 0.891 µM [inhibitor, full curve, poor fit]",
COc1ccc2c(c1)C1(CCN(C(=O)c3cccc(F)c3)C1)C(=O)N2C (stereo not drawn),"inconclusive: 20 µM [inhibitor, single point]",
Cc1cccc(C(=O)N2CCCOCCNC(=O)[C@@H]3CCCC[C@@H]32)c1,"inconclusive: 17.8 µM [inhibitor, single point]",
CCOC(=O)CN1CCCC1c1ccc(C(=O)NCCn2ccnc2)s1 (stereo not drawn),inactive,
CN1CCC(N2CC[C@H](c3nnc(-c4ccccc4F)o3)C2)CC1,"inconclusive: 31.6 µM [inhibitor, single point]",
Cn1nc2n(c1=O)CCN(S(=O)(=O)c1ccccc1C(F)(F)F)CC2,inactive,
O=C(Nc1ccccc1)c1cnc2n1CCN(Cc1ccc3[nH]ccc3c1)CC2,"inconclusive: 12.6 µM [inhibitor, single point]",
Cc1nn(CC(=O)NCC(C)c2ccccc2)c(=O)c2cc3ccccc3n12 (stereo not drawn),,inactive: 244% [at 5.79 µM]
C=CCNC(=O)N1CC[C@H]2CC(=O)N(CCNC(C)=O)CC[C@H]2C1,inactive,
CC(=O)Nc1ccc(CN2CCC3(C2)NC(=O)c2ccccc2CO3)cc1 (stereo not drawn),inactive,
Cc1cccc(-c2cn[nH]c2C2CCN(C(=O)c3ccc4nccnc4c3)CC2)c1,"inconclusive: 7.94 µM [inhibitor, single point]",
O=C1N[C@@H]2CCN(C(=O)c3ccc(C(F)(F)F)cc3)[C@@H]2C(=O)N1c1ccc(Oc2ccccc2)cc1,inactive,
O=C(c1ccn[nH]1)N1C[C@@H](COCC2CC2)[C@H](c2ccccn2)C1,inactive,
Cc1ccc(-n2c(/C=C/c3ccccc3)nc3ccccc3c2=O)cc1Cl,"inconclusive: 11.2 µM [inhibitor, single point]",
Cc1ccc2cc(CCC(=O)NCCN3CCN(C)CC3)c(=O)[nH]c2c1,inactive,
O=C(c1cccc(F)c1)N1CCN(c2cc(-c3ccc(Cl)cc3)[nH]n2)CC1,inactive,
Cc1ccc(-c2cc(N3CCCN(C(=O)c4sccc4C)CC3)n[nH]2)cc1C,"inconclusive: 0.794 µM [inhibitor, full curve]",
O=C(c1cccc(F)c1F)N1CCCC2(CCNCC2)CC1,inactive,

SMILES,Potency,"activity, negative = inhibition"
COc1ccc(CN2CCC3(CC(c4ccc(OC)cc4)=NO3)C2)cc1 (stereo not drawn),"inconclusive: 0.178 µM [inhibitor, full curve, poor fit]",
Cc1ccc(S(=O)(=O)N2CCc3cc(C(=O)NCCc4ccccc4)ccc32)cc1,"inconclusive: 12.6 µM [inhibitor, single point]",
O=C1Nc2ccccc2C12CCN(Cc1ccc(C(F)(F)F)cc1)CC2,active: 12.6 µM,
O=C1NC2(CCN(CC3CCCC3)CC2)Oc2ccccc21,"inconclusive: 3.55 µM [inhibitor, single point]",
O=C(NC1CC1)c1ccc(-c2ccc(N3CCCCCC3)nc2)cc1,"inconclusive: 1.78 µM [inhibitor, partial curve]",
CCOc1cc(C(=O)Nc2ccc(-c3nc4cc(Cl)ccc4o3)cc2)cc(OCC)c1OCC,"inconclusive: 3.98 µM [inhibitor, single point]",
CC(=O)c1ccc(NC(=O)c2nc(-c3ccccc3)n(-c3ccccc3Cl)n2)cc1,"inconclusive: 5.01 µM [inhibitor, partial curve, poor fit]",
CC1=C[C@@H](CO)[C@H](C(C)C)C[C@H]1CC(=O)NCc1cccnc1,inactive,
COc1ccccc1-c1nnc([C@H]2CCN(C(=O)c3ccccc3)C2)o1,"inconclusive: 31.6 µM [inhibitor, single point]",
Cc1ccc(C(=O)N2CCC3(CC2)C(=NC2CCCCC2)NC(=O)N3c2cc(F)cc(F)c2)cc1,,inconclusive: -103% [inhibitor]
CN1CCC(NC[C@H]2COCc3nc4cc(C(F)(F)F)ccc4n32)CC1,"inconclusive: 1.41 µM [inhibitor, full curve, poor fit]",
COc1ccccc1C(=O)N1CCC(n2cc(-c3nc(-c4ccccc4)no3)nn2)C1 (stereo not drawn),"inconclusive: 3.98 µM [inhibitor, single point]",
CCN(Cc1c(F)cccc1Cl)C(=O)CCc1c(C)nn(C)c1C,inactive,
Cc1cccc(N2CCN(C(=O)Cn3ncc4c3-c3ccccc3OC4)CC2)c1C,"inconclusive: 17.8 µM [inhibitor, single point]",
O=C1[C@@H]2C[C@@H](CN2CC2CC2)Oc2ccccc2N1Cc1ccc(OC(F)(F)F)cc1,active: 3.98 µM,
CN1CC2(CCN(Cc3ccccn3)CC2)CC1C(=O)N1CCOCC1 (stereo not drawn),inactive,
Cc1ccccc1Cn1c(CN2CCN(c3cc(Cl)ccc3C)CC2)nc2c1c(=O)[nH]c(=O)n2C,"inconclusive: 17.8 µM [inhibitor, single point]",
COc1ccc(S(=O)(=O)N2C[C@@H]3C[C@H](C2)c2c(NC(=O)c4ccc5c(c4)OCO5)ccc(=O)n2C3)cc1,"inconclusive: 1.78 µM [inhibitor, partial curve, poor fit]",
CN(Cc1cccnc1)C1CCOc2ccccc21 (stereo not drawn),"inconclusive: 14.1 µM [inhibitor, single point]",
CC(C)Oc1ccc(C(=O)Nc2ccc(-c3nc4ccccc4s3)cc2)cc1,"inconclusive: 3.98 µM [inhibitor, partial curve, poor fit]",
C[C@@]12CO[C@@H](Cc3ccccc3)O[C@@H]1CC[C@]1(C)C2CC[C@@H](O)[C@H]1CC(=O)NCc1ccco1 (stereo partly drawn),inactive,
